Test results published in PMC3017775.
No constants are given. Whether binding was seen depends on the method and setting. Some results given as binding are weak or reduced against the parent protein; the word gives no strength.

What was measured:
[1] = biological target: T1, GGLO1/GDEF1 dimer (Gerbera hybrida) (UniProt Q9ZS28+Q9ZS26); experiment: yeast three-hybrid; third protein expressed unfused from pARC351 beside binding domain (pDEST32) and activation domain (pDEST22) fusions; selection on SD -Leu -Trp -Ura -Ade and SD -Leu -Trp -Ura -His with 1, 5 and 10 mM, or 10 and 25 mM 3-AT; +22°C for 7 days
T1 sequence 1: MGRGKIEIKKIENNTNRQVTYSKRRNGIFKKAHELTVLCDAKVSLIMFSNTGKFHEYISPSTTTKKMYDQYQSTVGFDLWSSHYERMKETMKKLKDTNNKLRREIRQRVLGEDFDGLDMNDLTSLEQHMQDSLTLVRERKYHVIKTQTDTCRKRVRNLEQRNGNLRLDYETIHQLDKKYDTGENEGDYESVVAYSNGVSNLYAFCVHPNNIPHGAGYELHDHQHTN
T1 sequence 2: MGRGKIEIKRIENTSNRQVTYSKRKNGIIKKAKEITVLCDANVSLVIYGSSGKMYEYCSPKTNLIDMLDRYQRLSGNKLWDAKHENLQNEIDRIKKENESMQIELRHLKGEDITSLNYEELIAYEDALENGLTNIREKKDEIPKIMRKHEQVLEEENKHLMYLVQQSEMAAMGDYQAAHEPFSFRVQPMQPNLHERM

[2] = biological target: T2, GGLO1/GDEF2 dimer (Gerbera hybrida) (UniProt Q9ZS27+Q9ZS26); experiment: as above
T2 sequence 1: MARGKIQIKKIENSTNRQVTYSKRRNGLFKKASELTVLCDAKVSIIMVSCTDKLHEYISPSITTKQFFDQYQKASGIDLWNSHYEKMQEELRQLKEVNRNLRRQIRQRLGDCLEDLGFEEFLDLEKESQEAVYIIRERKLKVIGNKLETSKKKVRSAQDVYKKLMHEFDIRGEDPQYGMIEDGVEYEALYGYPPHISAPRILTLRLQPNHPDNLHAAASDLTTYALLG
T2 sequence 2: T1 sequence 2

GAGA1 (Gerbera hybrida) = GAGA1 (Gerbera hybrida) (UniProt Q9ZS30); experiment: two-hybrid; binding domain (pDEST32) and activation domain (pDEST22) fusions combined in both directions by mating PJ69-4A and PJ69-4α; selection on SD -Leu -Trp -Ade and SD -Leu -Trp -His + 1, 5 or 10 mM 3-AT; +22°C for 5 days; positive if either direction grew
GAGA2 (Gerbera hybrida) = GAGA2 (Gerbera hybrida) (UniProt Q9ZS29); experiment: as above
GRCD2 (Gerbera hybrida) = GRCD2 (Gerbera hybrida) (UniProt Q6EUV7); experiment: as above
GSQUA2 (Gerbera hybrida) = biological target: T3, GSQUA2 (Gerbera hybrida) (UniProt D2T2G0); experiment: as above
T3 sequence: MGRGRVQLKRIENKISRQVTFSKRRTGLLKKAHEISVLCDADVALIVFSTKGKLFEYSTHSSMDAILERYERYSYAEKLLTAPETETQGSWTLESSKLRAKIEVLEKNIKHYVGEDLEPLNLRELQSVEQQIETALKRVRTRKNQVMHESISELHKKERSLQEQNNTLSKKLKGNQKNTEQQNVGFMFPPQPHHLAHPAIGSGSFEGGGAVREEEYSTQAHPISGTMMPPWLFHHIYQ

GSQUA5 (Gerbera hybrida) = GSQUA5 (Gerbera hybrida) (UniProt D2T2G2); experiment: as above
GSQUA1 (Gerbera hybrida) = GSQUA1 (Gerbera hybrida) (UniProt Q9ZS25); experiment: as above
GSQUA3 (Gerbera hybrida) = biological target: T4, GSQUA3 (Gerbera hybrida) (UniProt D2T2G1); experiment: as above
T4 sequence: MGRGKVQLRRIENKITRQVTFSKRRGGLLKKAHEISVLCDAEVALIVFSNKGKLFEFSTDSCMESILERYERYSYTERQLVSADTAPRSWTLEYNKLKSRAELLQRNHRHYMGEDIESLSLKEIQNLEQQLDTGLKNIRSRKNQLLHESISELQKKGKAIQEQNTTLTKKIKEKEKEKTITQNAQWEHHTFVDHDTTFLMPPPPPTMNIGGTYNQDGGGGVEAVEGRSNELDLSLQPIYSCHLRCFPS

GDEF1 (Gerbera hybrida) = biological target: T5, GDEF1 (Gerbera hybrida) (UniProt Q9ZS28); experiment: as above
T5 sequence: T1 sequence 1

GDEF2 (Gerbera hybrida) = biological target: T6, GDEF2 (Gerbera hybrida) (UniProt Q9ZS27); experiment: as above
T6 sequence: T2 sequence 1

GRCD1 (Gerbera hybrida) = GRCD1 (Gerbera hybrida) (UniProt Q9FST1); experiment: as above
GRCD3 (Gerbera hybrida) = GRCD3 (Gerbera hybrida) (UniProt Q6EUV6); experiment: as above
GGLO1 (Gerbera hybrida) = biological target: T7, GGLO1 (Gerbera hybrida) (UniProt Q9ZS26); experiment: as above
T7 sequence: T1 sequence 2

Row | Substance | binding [1] | binding [2] | binding (GAGA1 (Gerbera hybrida)) | binding (GAGA2 (Gerbera hybrida)) | binding (GRCD2 (Gerbera hybrida)) | binding (GSQUA2 (Gerbera hybrida)) | binding (GSQUA5 (Gerbera hybrida)) | binding (GSQUA1 (Gerbera hybrida)) | binding (GSQUA3 (Gerbera hybrida)) | binding (GDEF1 (Gerbera hybrida)) | binding (GDEF2 (Gerbera hybrida)) | binding (GRCD1 (Gerbera hybrida)) | binding (GRCD3 (Gerbera hybrida)) | binding (GGLO1 (Gerbera hybrida))
1 | GRCD2 (from UniProt Q6EUV7 1-247) | binds | binds | binds | binds | no binding | binds | – | – | – | – | – | – | – | –
2 | GSQUA5 (from UniProt D2T2G2 1-237) | no binding | binds | – | – | – | – | no binding | – | – | – | – | – | – | –
3 | GAGA2 (from UniProt Q9ZS29 1-246) | binds | binds | – | no binding | – | – | – | – | – | – | – | – | – | –
4 | GSQUA1 (from UniProt Q9ZS25 1-210) | no binding | binds | – | – | – | no binding | no binding | no binding | no binding | – | – | – | – | –
5 | GRCD1 (from UniProt Q9FST1 1-242) | no binding | no binding | binds | binds | no binding | no binding | no binding | no binding | no binding | no binding | no binding | no binding | no binding | –
6 | GAGA1 (from UniProt Q9ZS30 1-264) | binds | binds | no binding | – | – | – | – | – | – | – | – | – | – | –
7 | GRCD3 (from UniProt Q6EUV6 1-247) | binds | binds | no binding | no binding | no binding | no binding | no binding | no binding | no binding | no binding | no binding | – | no binding | no binding
